# From the supplement of paper PMC12217912
# The list shows a part of the results. The full chains were built here from the parent and the listed change. Inactive controls read about 0.05.
# B1: TEV protease; numbered along this chain (parent)
# chain: MGESLFKGPRDYNPISSSICHLTNESDGHTTSLYGIGFGPFIITNKHLFRRNNGTLVVQSLHGVFKVKDTTTLQQHLVDGRDMIIIRMPKDFPPFPQKLKFREPQREERICLVTTNFQTKSMSSMVSDTSCTFPSGDGIFWKHWIQTKDGQCGSPLVSTRDGFIVGIHSASNFTNTNNYFTSVPKNFMELLTNQEAQQWVSGWRLNADSVLWGGHKVFMVKPEEPFQPVKEATQL
# Variants of: B1
# Test: raw area under fraction-flipped curve 0-4 h after induction (AUC4h, not background-subtracted), DNA-recorder readout of cleavage of the substrate (dimensionless); higher = more cleavage of the substrate by the protease variant
# Conditions: temperature: 34 °C; time window: 0-4 h after rhamnose induction
# Method: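 In vivo DNA recorder in E. coli TOP10(DE3) ΔrhaA at 34 °C. Each TEVp single-site mutant (parent TEVp 0) is paired with a single-site variant of the 7-mer TEVs (canonical ENLYFQ|S). The substrate sits between flexible linkers in a Bxb1-sfGFP-TEVs-SsrA fusion, so cleavage stabilises Bxb1 and speeds flipping of a recombination array, read by NGS. The value is the raw area under the fraction-flipped curve over 0-4 h after rhamnose induction (AUC4h), with ≥20 reads per time point. It is not background-subtracted; inactive controls average about 0.047.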
# 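Further: Bxb1 expression induced with 0.2% (w/v) L-rhamnose at OD600 near 0.5, cultures sampled hourly, flipped fraction per protease–substrate barcode pair counted by paired-end Illumina sequencing.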
Variant,area with substrate ENLYFAS,area with substrate ENLYFCS,area with substrate ENLYFES,area with substrate ENLYFFS,area with substrate ENLYFHS,area with substrate ENLYFIS,area with substrate ENLYFKS,area with substrate ENLYFLS,area with substrate ENLYFMS,area with substrate ENLYFNS,area with substrate ENLYFPS,area with substrate ENLYFRS,area with substrate ENLYFSS,area with substrate ENLYFTS,area with substrate ENLYFVS,area with substrate ENLYFWS,area with substrate ENLYFDS,area with substrate ENLYFGS,area with substrate ENLYFYS
V157N,0.0451,0.0524,0.0567,0.0599,0.0423,0.0526,0.0548,0.0535,0.049,0.0482,0.0462,0.0635,0.0478,0.0418,0.0485,0.048,–,–,–
M219D,0.0656,0.0555,0.055,0.0636,–,0.0519,0.0506,0.0612,0.0646,0.0725,0.0563,–,–,0.0565,–,–,0.0534,0.053,–
Q194S,0.0536,0.0245,0.0784,0.0579,–,0.0646,0.0602,0.0542,0.0633,0.076,0.0601,0.0554,–,–,–,0.0524,0.0638,–,–
F65R,0.0502,0.0613,–,0.0651,0.0587,0.0537,0.0573,–,0.062,0.0668,0.0521,–,0.0781,0.0454,–,0.0703,–,0.065,0.0546
S18F,0.0539,0.0532,0.061,0.0757,0.0603,0.0549,0.0575,–,0.0617,0.0541,0.0608,–,0.0525,0.0565,0.0705,0.0682,0.0625,0.0758,0.056
D149S,0.069,–,0.0562,0.0751,0.0702,0.0564,0.0559,0.0709,0.0615,0.0587,0.0629,0.0663,0.0656,0.0487,0.0573,0.0578,0.0571,–,0.0605
P94D,0.0525,–,–,0.0637,–,0.0556,0.0664,0.052,0.0648,–,–,0.074,–,0.0501,–,–,0.0532,–,0.0619
M188T,0.0482,0.0656,0.0625,0.0652,0.0514,0.055,0.0576,–,0.0704,0.0518,0.0614,0.0559,0.0447,0.0409,–,0.0457,0.0435,–,0.0542
C20E,0.0471,0.0332,0.0416,0.0681,0.0348,0.0459,0.0376,0.058,0.0389,0.0549,0.0521,0.0455,0.0496,0.048,–,0.0392,–,0.0422,0.0294
V57Y,0.0596,0.0557,0.0518,0.0779,–,0.0554,–,–,0.0617,0.0569,0.0564,0.0588,0.039,0.0569,0.0628,–,0.0493,0.057,0.0673
G153N,0.0504,0.0589,–,0.0527,–,–,0.0524,–,0.0479,–,–,–,0.0492,–,–,0.0501,–,–,0.0621
L99C,0.0561,–,0.0537,0.0627,0.0459,0.0535,–,0.0623,0.0544,0.0523,0.0488,0.0602,0.0632,0.0631,0.0516,0.0698,0.06,–,0.05
